In patent US6534516B1, “Androgen receptor modulator compounds and methods” (Ligand Pharmaceuticals Incorporated, priority 1996, dated 2003):

Tests used:
[1] = tested on: Mouse Renal Ornithine Decarboxylase (ODC) Activity; type: in vivo; conditions: for % Inhibition of ODC Activity: with TP 0.1 mg/mouse/day s.c.; for inhibition of TP-induced ODC activity (in words): testosterone propionate 0.1 mg/mouse
[2] = tested on: Mouse Renal Ornithine Decarboxylase (ODC) Activity; type: in vivo

Row | SMILES | % Inhibition of ODC Activity ([1]; 1 mg/mouse, 1 day p.o.) | inhibition of TP-induced ODC activity (in words) [1] | % Inhibition of ODC Activity ([1]; 1 mg/mouse, 1 day s.c.) | other results
1 | CC12CCCN1c1cc3[nH]c(=O)c(F)c(C(F)(F)F)c3cc1CC2 (racemic) [Compound 102, (R/S)-3-Fluoro-6,7,7a,11-tetrahydro-7a-methyl-4-trifluoromethyl-2-pyridono[5,6-g]pyrrolidino[1,2-a]quinoline] | −5.2% | – | – | –
2 | CC(O)(CS(=O)(=O)c1ccc(F)cc1)C(=O)Nc1ccc(C#N)c(C(F)(F)F)c1 (stereo not drawn) [Casodex] | – | inhibited this induction | – | –
3 | Cn1c(=O)c(F)c(C(F)(F)F)c2cc3c(cc21)NC(C)(C)CC3 [Compound 107, 7-Fluoro-1,2,3,4-tetrahydro-2,2,9-trimethyl-6-trifluoromethyl-8-pyridono[5,6-g]quinoline] | 42% | – | 72% | –
4 | CCC1(CC)CCc2cc3c(C(F)(F)F)c(F)c(=O)[nH]c3cc2N1 [Compound 120, 2,2-Diethyl-7-fluoro-1,2,3,4-tetrahydro-6-trifluoromethyl-8-pyridono[5,6-g]quinoline] | 46% | – | 52% | –
5 | CC(=O)O[C@]1(C(C)=O)CC[C@H]2[C@@H]3C=C(Cl)C4=CC(=O)[C@@H]5C[C@@H]5[C@]4(C)[C@H]3CC[C@@]21C [Cyproterone acetate, cyproterone acetate] | – | inhibited this induction | – | –
6 | CC(C)C(=O)Nc1ccc([N+](=O)[O-])c(C(F)(F)F)c1 [Flutamide, 2-methyl-N-[4-nitro-3-(trifluoromethyl)phenyl]propanamide] | 37.7% | inhibited this induction | 88.3% | % Inhibition of ODC Activity ([1]; 1 mg/mouse, 3 days p.o.): 60.7%; % Inhibition of ODC Activity ([1]; 3 mg/mouse, 1 day s.c.): 98.1%; % Inhibition of ODC Activity ([1]; 3 mg/mouse, 3 days p.o.): 92.0%
7 | CC(=O)[C@H]1CC[C@H]2[C@@H]3CCC4=CC(=O)CC[C@]4(C)[C@H]3CC[C@]12C [Prog, progesterone] | – | – | – | stimulatory activity on renal ODC (in words) ([2]; estradiol 0.02 mg/mouse, progesterone 1 mg/mouse): did not show any stimulatory activity
8 | CCC(=O)O[C@H]1CC[C@H]2[C@@H]3CCC4=CC(=O)CC[C@]4(C)[C@H]3CC[C@]12C [Testosterone Propionate, Testosterone propionate] | – | – | – | increase in ODC activity compared to castrated controls ([2]; 1.0 mg/mouse/day): 700 fold

Read-outs that look alike come from different tables or passages of the source.
